Screen size: about 350,000 compounds; about 31,000 (8.9%) were called active. This list was built around the results that the source calls inconclusive (neither active nor inactive); the mix of calls is not that of the screen. Calls come from the whole dose curve; as a rule, active = well fitted inhibition curve with a large enough effect; inconclusive = small, poorly fitted or top-dose-only effect; inactive = no such curve, though single readings can be large or run the other way. Potencies beside an inconclusive call are fits to weak or partial responses and may not hold up.
Biological target: Histone-lysine N-methyltransferase EHMT2 (Homo sapiens) (UniProt Q96KQ7)
Chain of UniProt Q96KQ7 (Q96KQ7 whole entry, looked up): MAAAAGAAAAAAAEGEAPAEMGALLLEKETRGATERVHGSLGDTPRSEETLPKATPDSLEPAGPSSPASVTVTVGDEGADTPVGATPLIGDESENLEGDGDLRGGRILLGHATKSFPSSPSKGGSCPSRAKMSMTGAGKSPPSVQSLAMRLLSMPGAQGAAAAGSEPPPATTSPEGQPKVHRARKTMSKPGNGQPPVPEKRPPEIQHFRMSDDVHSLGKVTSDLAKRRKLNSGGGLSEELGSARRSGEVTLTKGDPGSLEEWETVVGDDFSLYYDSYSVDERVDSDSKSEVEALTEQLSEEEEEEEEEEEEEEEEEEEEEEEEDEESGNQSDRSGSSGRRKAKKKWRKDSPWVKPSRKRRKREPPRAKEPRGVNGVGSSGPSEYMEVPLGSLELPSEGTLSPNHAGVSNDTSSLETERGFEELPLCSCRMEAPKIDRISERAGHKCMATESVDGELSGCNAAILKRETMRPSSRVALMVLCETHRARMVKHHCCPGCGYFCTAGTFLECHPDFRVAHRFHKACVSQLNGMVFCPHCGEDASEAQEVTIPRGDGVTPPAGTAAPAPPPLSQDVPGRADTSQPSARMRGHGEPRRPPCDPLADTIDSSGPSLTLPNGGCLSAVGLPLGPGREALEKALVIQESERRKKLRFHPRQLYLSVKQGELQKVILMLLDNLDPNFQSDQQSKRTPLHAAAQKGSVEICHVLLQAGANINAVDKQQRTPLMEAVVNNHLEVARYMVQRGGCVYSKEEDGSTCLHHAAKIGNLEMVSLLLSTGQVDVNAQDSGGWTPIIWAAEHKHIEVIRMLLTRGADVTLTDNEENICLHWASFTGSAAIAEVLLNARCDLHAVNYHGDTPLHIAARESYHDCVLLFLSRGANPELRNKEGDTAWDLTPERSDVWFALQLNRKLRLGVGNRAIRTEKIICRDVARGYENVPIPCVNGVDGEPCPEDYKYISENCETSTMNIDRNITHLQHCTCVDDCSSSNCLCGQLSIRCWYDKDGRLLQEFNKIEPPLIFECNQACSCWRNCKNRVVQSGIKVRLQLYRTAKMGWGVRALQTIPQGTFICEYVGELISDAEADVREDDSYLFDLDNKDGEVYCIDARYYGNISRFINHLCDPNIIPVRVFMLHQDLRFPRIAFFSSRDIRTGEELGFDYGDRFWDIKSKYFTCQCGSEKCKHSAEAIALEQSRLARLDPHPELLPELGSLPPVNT
Test: qHTS Assay for Inhibitors of Histone Lysine Methyltransferase G9a; note: nearly all actives have a fitted effect of over 75% in size
Settings: G9a H3K9 monomethylation, AlphaScreen, 2 h
How it was run: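 Methyltransferase reactions run at room temperature for 2 h (20 nM enzyme, 500 nM biotin-H3K9 peptide, 20 uM SAM) after a 15 min compound preincubation; product detected by AlphaScreen beads and anti-H3K9me1 antibody.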
Potency is the fitted concentration of half-maximal effect; tags give direction and shape of the fitted curve.

SMILES | Potency
COc1ccccc1N(CC(O)CN1CCCC1)S(=O)(=O)c1ccccc1 (stereo not given) | inconclusive: 89.1 µM [inhibitor, partial curve, poor fit]
CCOC(=O)N1CCN(Cc2nc3c(c(=O)n(C)c(=O)n3C)n2Cc2ccccc2C)CC1 | inconclusive: 28.2 µM [inhibitor, partial curve, poor fit]
CCN(C(=O)CSc1ncccn1)C1CCS(=O)(=O)C1 (stereo not given) | inactive
CCCN(C(=O)c1sc2nc3n(c(=O)c2c1C)CCCC3)c1ccccc1C | inconclusive: 7.94 µM [inhibitor, partial curve, poor fit]
C=C(C)CNC(=S)NN=C1c2ccccc2-c2ccccc21 | inconclusive: 39.8 µM [inhibitor, full curve]
FC(F)(F)c1ccc(Oc2ccc3cc(Br)ccc3c2)nc1 | inactive
CCCN1CCc2c(sc(NC(=O)c3ccc(S(=O)(=O)N4CCN(C(=O)OCC)CC4)cc3)c2C(N)=O)C1 | inconclusive: 89.1 µM [inhibitor, single point]
O=S(=O)(NCCN1CCOCC1)c1ccc(Oc2ccccc2Cl)cc1 | inconclusive: 89.1 µM [inhibitor, single point]
COC(=O)c1c(NC(=O)c2cc3nc(-c4ccc(Br)cc4)cc(C(F)(F)F)n3n2)sc2c1CCCC2 | inactive
COc1ccc([N+](=O)[O-])cc1NS(=O)(=O)c1ccccc1 | active: 0.794 µM
CN(C)c1nc2sc3c(c2c(=O)n1C)CC(C)(C)OC3 | inconclusive: 89.1 µM [inhibitor, single point]
Cc1cc(=O)n(CC(=O)Nc2cccc([N+](=O)[O-])c2)c(-n2nc(C)cc2C)n1 | inconclusive: 3.16 µM [inhibitor, partial curve, poor fit]
S=c1[nH]cc(-c2ccccc2)n1-c1ccccc1 | active: 0.891 µM
CC1CC(=O)NN=C1c1cccs1 (stereo not given) | inconclusive: 39.8 µM [inhibitor, single point]
COc1ccc(C)cc1-n1nnnc1SCC(=O)c1cc(C)n(Cc2ccco2)c1C | inconclusive: 63.1 µM [inhibitor, partial curve, poor fit]
CC1=C(C(=O)OCC2CCCCC2)C(c2ccc(Cl)cc2Cl)CC(=O)N1 (stereo not given) | inactive
O=C(Nc1ccccc1OCc1cc(=O)n2ccccc2n1)c1ccccc1F | inactive
COCCn1c(SCC(=O)NCc2ccco2)nc2cccnc21 | inconclusive: 79.4 µM [inhibitor, partial curve, poor fit]
COc1ccc(CNC(=O)CN2C(=O)CSc3ccc(S(=O)(=O)N4CCCC4)cc32)cc1 | inactive
Cc1ccc(C(=O)NC(NC(=S)Nc2ccc(S(N)(=O)=O)cc2)C(Cl)(Cl)Cl)cc1 (stereo not given) | inconclusive: 28.2 µM [inhibitor, single point]
Cc1ccccc1CN1CCNC(=O)C1CC(=O)O (stereo not given) | active: 14.1 µM
Cc1cccc(Cn2cc(C(=O)Nc3ccc(S(N)(=O)=O)cc3)ccc2=O)c1 | inactive
C[C@]12C=CC(=O)C=C1CC[C@@H]1C2C(O)C[C@@]2(C)C1CC[C@]2(O)C(=O)COC(=O)CCC(=O)NC(CC(=O)O)C(=O)O (stereo not given in full) | inconclusive: 89.1 µM [inhibitor, partial curve, poor fit]

SMILES | Potency
O=C(C1CCN(S(=O)(=O)Cc2ccccc2)CC1)N1CCN(c2ccccc2F)CC1 | inconclusive: 35.5 µM [inhibitor, partial curve, poor fit]
COCCN(CCOC)Cc1c(O)ccc2c1O/C(=C\c1ccco1)C2=O | active: 4.47 µM
CC(C)(C)c1ccccc1OCCCCCNCCO | inconclusive: 8.91 µM [inhibitor, partial curve, poor fit]
CCOC(=O)c1nc(-c2ccc(OC)c(OC)c2)cnc1C#N | inconclusive: 89.1 µM [inhibitor, single point]
COc1ccc(Cl)cc1NC(=O)N1CCC(CN2CCCCCC2)CC1 | inconclusive: 25.1 µM [inhibitor, single point]
Cc1ccc(NC(=S)NNC(=S)Nc2cccc(C(F)(F)F)c2)cc1 | active: 20 µM
CC1=NOC(=O)/C1=C\c1ccc(-c2cc(Cl)ccc2Cl)o1 | inconclusive: 39.8 µM [inhibitor, single point]
COc1ccc(-c2csc(N(CCCN(C)C)C(=O)c3ccccc3C)n2)cc1 | inactive
CC1=NCCN1S(=O)(=O)c1cccc([N+](=O)[O-])c1 | inconclusive: 79.4 µM [inhibitor, partial curve, poor fit]
CC(C)(C)c1cn(-c2ccc(F)cc2)c(=S)[nH]1 | active: 1.41 µM
CSCC[C@H](NC(=O)C1CCN(C(=O)[C@@H](N)Cc2ccccc2)CC1)C(=O)O | inconclusive: 79.4 µM [inhibitor, single point]
COC(=O)c1ccc(CSc2nc3ccccc3c(=O)n2-c2cccc(OC)c2)o1 | inconclusive: 89.1 µM [inhibitor, single point]
O=C(CSc1ccsc1[N+](=O)[O-])NCCc1ccc(Cl)cc1 | inactive
COC(=O)c1ccc(Cn2nnc3sc4c(c3c2=O)CCCC4)cc1 | inactive
CCc1ccccc1OCCSc1nnc(-c2cc(OC)c(OC)c(OC)c2)o1 | inactive
CC(=O)N1c2ccc(Cl)cc2C2C=CCC2C1c1cccc2ccccc12 (stereo not given) | active: 12.6 µM
O=C(COC(=O)c1ccc(Br)o1)NCCNC(=O)COC(=O)c1ccc(Br)o1 | inconclusive: 20 µM [inhibitor, partial curve, poor fit]
CCOC(=O)C1CCCN(C(=O)c2cc3c(OC)c(OC)c(OC)cc3[nH]2)C1 (stereo not given) | inactive
CCOC(=O)N1CCN(C(=O)COc2ccc(Br)cc2Cl)CC1 | inconclusive: 31.6 µM [inhibitor, single point]
CCNCc1ccc(OCc2ccccc2F)c(OC)c1 | inconclusive: 39.8 µM [inhibitor, full curve, poor fit]
COc1ccc(-c2ccc(NC(=O)c3ccc(Br)o3)cc2)nn1 | active: 44.7 µM
CCc1nnc(NS(=O)(=O)c2ccc(NC(=O)c3ccccc3)cc2)s1 | inconclusive: 56.2 µM [inhibitor, partial curve, poor fit]

Source: PubChem BioAssay AID504332 (National Center for Advancing Translational Sciences (NCATS), 2011)
